Measurements reported in ChEMBL document CHEMBL1157539, “Thousands of chemical starting points for antimalarial lead identification” (Nature, 2010).
Over roughly 13,000 compounds, “IFI” has its median near 4; the highest 2% begin near 17. The list shows a part of the results.

Test: GSK_TCMDC: Inhibition Frequency Index (IFI). The number of non-kinase HTS assays where a compound showed > 50 % inhibition, expressed as a percentage of the number of such assays in which the compound was tested (-0 is zero)
Assay type: functional

Compound	IFI
Cc1cc(OCCCN2CCC(NS(=O)(=O)c3cc(Br)c(Cl)s3)CC2)c2ccccc2n1	5.17%
N#Cc1ccc(CN2CCC(Oc3ccc(NC(=O)c4cccs4)cc3Cl)CC2)cc1	13.4%
CC(C)CCNCC(O)Cn1c2ccc(Cl)cc2c2cc(Cl)ccc21 (centres undefined)	14.5%
NS(=O)(=O)CCc1cccc(Nc2nccc(-c3c(-c4cccc(NC(=O)c5c(F)cccc5F)c4)nn4ccccc34)n2)c1	7.87%
Cc1c(Cc2ccccc2Br)cnc2nc(N)nc(N)c12	3.55%
CCc1nnc2sc(-c3cccc(NC(=O)c4ccc(OC)c(Cl)c4)c3)nn12	3.51%
CCNc1cc(C(=O)N[C@@H](Cc2ccccc2Cl)[C@H](O)CNC(C)CCCC(C)C)cc(N2CCCCS2(=O)=O)c1 (some centres undefined)	6.43%
CC(=O)Nc1cccc(-c2cnc(N)c3cc(-c4ccc5c(c4)OCO5)ccc23)c1	13.3%
NC(CC1CC(=O)N1CC(=O)O)C(=O)O (centres undefined)	1.43%
O=C(Nc1ccc2c(c1)CN(Cc1ccc(N3CCCC3)o1)CCC2)c1cncs1	-0%
CSc1nc2nc(C)c(Cc3cccc(F)c3)c(C)n2n1	0.65%
COc1ccc2c(O)c(Br)c(C)nc2c1	-0%
CN(c1ccc2c(c1)nc(Nc1cc(C(C)(C)C)on1)n2C)c1ccnc(Nc2ccc(CS(C)(=O)=O)cc2)n1	9.4%
CCN(CC)CCOc1ccc(C(O)(C#CC(O)(c2ccc(C)cc2)c2ccc(OCCN(CC)CC)cc2)c2ccc(C)cc2)cc1 (centres undefined)	8.09%
Cc1cc(C(=O)Nc2ccc3c(c2)CCN3C2CCN(Cc3cccc4cc[nH]c34)C2)no1 (centres undefined)	6.25%
CCNc1cc(C(=O)N[C@@H](Cc2ccccc2)[C@H](O)CNC(C)(C)CC(C)(C)C)c(F)c(N2CCCCS2(=O)=O)c1	0.74%
CCCNC(=O)C1Cc2c([nH]c3ccc(Br)cc23)C2(CCN(CCc3ccccc3)CC2)N1 (centres undefined)	8.82%
Cc1cc(N(C)C)nc(Nc2ccc(NC(=O)C(C)Oc3ccccc3)cc2)n1 (centres undefined)	3.92%
COc1ccc(CNCc2ccc(-c3cccc(-c4nc5cc(F)ccc5[nH]4)c3)cc2)cc1	7.55%
COc1ccc(CCc2ccc(-c3c(C)[nH]c(C)c(Cl)c3=O)cc2)cc1OC	-0%
COc1ccc2nccc([C@@H](O)CN3CCC(NC(=O)c4ccc(-c5ccc(C#N)cc5)cc4)CC3)c2c1	7.48%
c1cc(-c2ccc(CN3CCCC3)cc2)cc(-c2nc3ccccc3[nH]2)c1	1.35%
C=CCN(C(=O)c1ccc(Cl)c([N+](=O)[O-])c1)c1nc(-c2ccccc2)cs1	3.39%

Compound	IFI
CCNc1cc(C(=O)N[C@@H](Cc2ccccc2)[C@H](O)CNC23CC4CC(CC(C4)C2)C3)cc(N2CCCCS2(=O)=O)c1	0.75%
CC(CN(C)C)C(=O)Nc1cccc(-c2cccc(-c3nc4cc(F)ccc4[nH]3)c2)c1 (centres undefined)	5.41%
NCCCCNc1cc(-c2ccnc(Nc3cccc(Cl)c3)n2)ccn1	13%
Cc1cc(N)c2cc(NC(=O)c3ccc4ccccc4c3)ccc2n1	6.08%
CN(C)CCCn1cncc1-c1ccc2ncnc(Nc3ccc4c(cnn4Cc4ccccc4)c3)c2c1	0.75%
COc1cccc2cc(C(=O)N[C@@H](CC(C)C)C(=O)N[C@H](/C=N/NC(=O)Cc3cccnc3)CCc3ccccc3)oc12	5.36%
Cc1cc(F)ccc1-c1nc(NCCCNCCc2ccccc2)nc2c1ccc(=O)n2-c1c(F)cccc1F	7.81%
CC1(C)N=C(N)N=C(N)N1OCc1cccc2c1ccc1ccccc12	4.93%
CC(=O)N(C)c1ccc(C(=O)Nc2cccc(-c3cccc(-c4nc5cc(C(F)(F)F)ccc5[nH]4)c3)c2)cc1	7.89%
COc1c(OC)c(OC)c2ccccc2c1CNCCCCCCNCc1c(OC)c(OC)c(OC)c2ccccc12	14.8%
O=S(=O)(NCCN1CCCC1)c1ccc(-c2ccc(CNCc3ccc(F)cc3)cc2)s1	11.7%
CCn1ncc2c(N3CCCC3=O)cc(C(=O)N[C@@H](Cc3ccccc3)[C@H](O)CNC(C)(C)c3cccc(OC)c3)cc21	1.46%
CCCCC1(NC(=O)[C@@H](Nc2ccc(C#N)c3ccccc23)C2CCCCC2)CCCCC1	0.96%
CC1CCC(C(C)C)C(OC(=O)CSc2nnc3c(n2)[nH]c2ccccc23)C1 (centres undefined)	0%
CCCN1CCN(Cc2ccc(C(=O)Nc3ccc(Cl)cc3)cc2)CC1	4.8%
COC(=O)C(Cc1ccccc1)NC(=O)NC1CCN(c2ccnc(Nc3ccc(F)cc3)n2)C1 (centres undefined)	3.08%
Cc1cc(NC(=O)NC(=N)N)ccc1Cl	2.88%
O=C(Cn1c(SCc2cccc(F)c2F)cc(=O)c2ccccc21)N(CCCn1ccnc1)Cc1ccc(-c2ccc(C(F)(F)F)cc2)cc1	2.17%
O=c1cc(NCCCNCc2cc(C(F)(F)F)ccc2Cl)[nH]c2ccccc12	0.72%
COc1ccc2[nH]c(C(=O)Nc3ccc4[nH]c(-c5ccccc5)nc4c3)cc2c1	7.69%
CCOc1ccc(-c2nonc2NC(=O)c2ccccc2OC)cc1OCC	2.99%
COc1ccc(C2NCCc3c2[nH]c2ccccc32)cc1CN1CCN(c2ccc(F)cc2)CC1 (centres undefined)	10%
COc1ccc2ccccc2c1CNCC1CCN(CC2CCCCC2)CC1	5.88%

Compound	IFI
O=S(=O)(NCCN1CCCC1)c1ccc(-c2ccc(CNC3Cc4ccccc4C3)cc2)cc1	7.69%
O=C(Nc1ccc(OC2CCN(CC3CC3)CC2)c(Cl)c1)c1ccc2ncccc2c1	3.08%
CCCN1CCC=C(c2cccc(Nc3nccc(Nc4cc(OC)ccc4C)n3)c2)C1	5.04%
CCCC1N=C(N)N=C(N)N1c1ccc(C)cc1 (centres undefined)	-0%
CC(C)c1ccc(NC(=O)c2cccc(CN3CCCN(CC4CCCCC4)CC3)c2)cc1	14.7%
Cc1cc(=NN=Cc2ccccn2)c2cc(F)ccc2[nH]1	2.99%
Cc1ccc(NC(=O)c2cccc(CN3CCCN(Cc4cccc(O)c4)CC3)c2)cc1F	4.23%
CC(CN1CCN(C)CC1)C(=O)Nc1cccc(-c2ccc(-c3nc4ccccc4[nH]3)s2)c1 (centres undefined)	1.85%
CC(Oc1cccc(Cl)c1)C(=O)N1CCc2ccccc21 (centres undefined)	1.44%
CN(C)c1cccc2c(S(=O)(=O)Nc3cccc(CCN4CCC(N5CCCCC5)CC4)c3)cccc12	18%
CC(C)(CNCc1ccc(C(F)(F)F)cc1)c1nc(-c2ccnc(N)n2)c(-c2ccc(Cl)c(O)c2)[nH]1	10.6%
C/C(=C\C(=O)NC1CC1)c1ccccc1OCc1ccccc1	1.5%
Cc1ccc(CN2CCCN(Cc3cccc(NC(=O)c4ccc(-c5ccccc5)cc4)c3)CC2)cc1C	5.48%
O=C(Cc1ccc[n+]([O-])c1)Nc1ccc(-c2cccc(-c3nc4cc(C(F)(F)F)ccc4[nH]3)c2)cc1	0.9%
COc1ccc2c(=O)c(-c3ccc(OC(F)(F)F)cc3)c(C)[nH]c2c1	-0%
FC(F)(F)c1ccc2[nH]c(-c3cccc(-c4ccc(CNCCN5CCNCC5)cc4)c3)nc2c1	9.9%
Oc1ccc(CCCNc2nc(NCc3cccc4ccccc34)nc(N3CCCNCC3)n2)cc1	11.9%
CCCCCNC(=N)N/N=C/c1c[nH]c2ccc(OC)cc12	7.75%
CCCN1CCc2c(sc3nc(SCC(=O)Nc4ccc(C)cc4)n(-c4ccc(C)cc4)c(=O)c23)C1	2.74%
COc1cc(NC(=O)c2cccs2)c(C(=O)NCc2ccc(C)cc2)cc1OC	0%
O=C(Nc1ccc(N2CCN(Cc3ccccc3)CC2)cc1)c1cccs1	0%
Cc1nc(N)nc(N)c1-c1ccc(Br)c([N+](=O)[O-])c1	3.08%
COc1ccc2nccc([C@@H](O)CN3CCC(NCc4cc5ccccc5nc4O)CC3)c2c1	1.39%

Compound	IFI
C[C@H]1CN(Cc2cccc(-c3cc(CNC(=O)c4cccc(C(=O)c5ccc(Cl)c(Cl)c5)c4)ccc3F)c2)CCN1	18.6%
COc1ccc2c(c1)[nH]c1c(/C=C/c3ccc([N+](=O)[O-])cc3)nccc12	2.96%
CC(C)C[C@H](NC(=O)c1cc2ccccc2s1)C(=O)N[C@H]1CCN(Cc2ccc(OC3CCN(C)C3)c(Cl)c2)C1 (some centres undefined)	6.67%
COc1ccc(C#Cc2ccc(-c3c(C)[nH]c(C)c(Cl)c3=O)cc2)cc1	0.88%
CCCN(Cc1ccc(C)cc1)Cc1cc(=O)c2cc(Cl)ccc2[nH]1	9.09%
Nc1ncc(-c2ccsc2)cc1-c1nc2ccccc2[nH]1	5.71%
O=C(N[C@H]1CCN(CCc2ccc(O[C@H]3CCNC3)c(Br)c2)C1)c1ccc(Cl)c(Cl)c1	4.2%
CCCCCCn1c(Sc2ccc(C#N)c([N+](=O)[O-])c2)nnc1-c1ccc(Cl)cc1	6.43%
Fc1cccc(Nc2nc(NCc3ccc4ccsc4c3)nc(Nc3cccc(F)c3)n2)c1	3.85%
COc1cccc(CNC(=O)c2cccc(-c3ccc(CN4CCC(N5CCCC5)CC4)cc3)n2)c1	9.09%
COc1ccc(Nc2nc(N3CCCC3)c3ccccc3n2)cc1	7.76%
CCCCc1cc(NCc2ccncc2)nc(Nc2ccc(OC)cc2)n1	4.48%
CC(=O)N1N=C(c2[nH]c3ccc(Br)cc3c2C)OC1c1ccccc1 (centres undefined)	2.44%
COc1cc2nc(NCc3nc4ccccc4[nH]3)nc(N)c2cc1OC	-0%
Cc1ccc(NC(=O)c2ccc(N3CCN(c4ccncc4)CC3)cc2)cc1F	6.9%
O=C(Cn1c(SCc2cccc(F)c2F)cc(=O)c2ccccc21)N(CCc1c[nH]cn1)Cc1ccc(-c2ccc(C(F)(F)F)cc2)cc1	5.19%
N=c1n(CCN2CCCCC2)c2ccccc2n1CC(O)c1ccc(Cl)c(Cl)c1 (centres undefined)	5.04%
CC(C)CCC[C@@H]([C@@H](CC1CCCCC1)C(=O)N[C@@H](CCCCNC(=O)OCc1ccccc1)C(=O)Nc1nccs1)N(O)C=O	1.53%
O=c1cc(NCCCNC2CCCc3c2cc(Cl)c(Cl)c3Cl)[nH]c2ccccc12 (centres undefined)	9.86%
O=C(C1CC1c1ccccc1)N(Cc1ccc(-c2ccc(CNCCc3ccccc3)cc2)cc1)C1CCNCC1 (centres undefined)	4.48%
